According to PubChem BioAssay AID228 (DTP/NCI, 2004):
Inconclusive results are not listed. For part of its entries the source gives two or more results. They are shown here; other results are not. The source may hold further records. Results that share an entry are repeated measurements across runs, samples, wells, individuals or studies. What stands in brackets tells the records apart. A, B and so on number the origins entry by entry. Marks such as (2×) count equal records among those shown. Starred links: 1 amine or outer side, 2 acyl side, 3 side chain; linkers in the order of their positions; H or OH if unused. Positions of bridges follow the written chain, without caps; N, C: chain ends. Non-standard residues stand in square brackets, D forms with d. Residues, ends and D or L forms follow the SMILES beside them. Chains are numbered I, II in the order given. Actinocin(9to1) = Cc1c2oc3c(C)ccc(C(=O)[*:1])c3nc-2c(C(=O)[*:2])c(N)c1=O; aThr = C[C@H](O)[C@H](N)C(=O)O; NMeV = CN[C@H](C(=O)O)C(C)C; Sar = CNCC(=O)O

System: BDF1 mice, Friend leukemia sc, tumor weight T/C
Assay: NCI In Vivo Anticancer Drug Screen. Data for tumor model Friend Virus Leukemia (Solid) (subcutaneous) in B6D2F1 (BDF1) mice
Conditions: endpoint: mean tumor weight, higher = larger tumour
Method: The antitumor activity of compounds was measured in mice bearing transplantable tumors. Survival or tumor size were measured and the results are expressed as the measurement made in the treated group (T) divided by the measurement made in the vehicle treated control group (C). The tumor model used in this assay is Friend Virus Leukemia (Solid) (subcutaneous) in B6D2F1 (BDF1) mice

[1] = dose: 1.0 mg/kg/injection, schedule: Q01DX011 (ip), vehicle: carboxymethylcellulose (CMC)
[2] = dose: 50.0 mg/kg/injection, schedule: Q01DX011 (ip), vehicle: carboxymethylcellulose (CMC)

Q: Which T/C (dose: 25.0 mg/kg/injection, schedule: Q01DX011 (ip), vehicle: carboxymethylcellulose (CMC)) does the source give for O=P1(N(CCCl)CCCl)NCCCO1 (stereo unspecified) here?
A: 11 % of control, 33 % of control, 51 % of control

Q: How did the T/C (dose: 0.12 mg/kg/injection, schedule: Q01DX011 (ip), vehicle: carboxymethylcellulose (CMC)) turn out when Nc1nc(=S)c2[nH]cnc2[nH]1 was run?
A: 65 % of control and 107 % of control

Q: What does the source list for CN(N=O)C(N)=O?
A: T/C [1]: 32 % of control, 68 % of control, 79 % of control; T/C (dose: 5.0 mg/kg/injection, schedule: Q01DX011 (ip), vehicle: carboxymethylcellulose (CMC)): 59 % of control, 64 % of control, 89 % of control; T/C (dose: 10.0 mg/kg/injection, schedule: Q01DX011 (ip), vehicle: carboxymethylcellulose (CMC)): 55 % of control, 80 % of control, 98 % of control

Q: How did the T/C (dose: 34.0 mg/kg/injection, schedule: Q01DX011 (sc), vehicle: steriod suspending solution) turn out when CC(=O)OCC(=O)[C@@]1(O)CC[C@H]2[C@@H]3CCC4=CC(=O)CC[C@]4(C)[C@H]3[C@@H](O)C[C@@]21C was run?
A: 14 % of control and 105 % of control

Q: NC(=O)/C=C/C(=O)O (tested in a mixture with another compound) was tested. Which T/C (dose: 31.0 mg/kg/injection, schedule: Q#A X022 (ip), vehicle: carboxymethylcellulose (CMC)) did it give?
A: 23 % of control and 55 % of control

Q: For OCC1OC(n2cnc3c(=S)nc[nH]c32)C(O)C1O (stereo unspecified), which T/C (dose: 0.5 mg/kg/injection, schedule: Q01DX011 (ip), vehicle: carboxymethylcellulose (CMC)) is on record?
A: 36 % of control, 98 % of control, 156 % of control

Q: Which T/C (dose: 0.75 mg/kg/injection, schedule: Q01DX011 (ip), vehicle: carboxymethylcellulose (CMC)) does the source give for Nc1nc(=S)c2ncn(C3OC(CO)C(O)C3O)c2[nH]1 (stereo unspecified) here?
A: 38 % of control and 67 % of control

Q: With CO[C@@]12[C@H](COC(N)=O)C3=C(C(=O)C(C)=C(N)C3=O)N1C[C@@H]1N[C@@H]12 as the molecule, how does the T/C [1] read?
A: 18 % of control, 67 % of control, 161 % of control

Q: And the T/C (dose: 2.0 mg/kg/injection, schedule: Q01DX011 (ip), vehicle: carboxymethylcellulose (CMC))?
A: 2 % of control, 22 % of control, 84 % of control

Q: Which T/C [2] does the source give for Nc1ccccc1N here?
A: 46 % of control and 72 % of control

Q: How did the T/C (dose: 300.0 mg/kg/injection, schedule: Q01DX011 (sc), vehicle: steriod suspending solution) turn out when C[C@]12CC[C@@H]3c4ccc(O)cc4CC[C@H]3[C@@H]1CC[C@@H]2O was run?
A: 89 % of control and 176 % of control

Q: c1ccc2c(c1)ccc1cc3c(ccc4ccccc43)cc12 was tested. Which T/C (dose: 125.0 mg/kg/injection, schedule: Q01DX011 (ip), vehicle: carboxymethylcellulose (CMC)) did it give?
A: 42 % of control and 70 % of control

Q: Which T/C (dose: 3.0 mg/kg/injection, schedule: Q01DX011 (ip), vehicle: carboxymethylcellulose (CMC)) does the source give for S=c1nc[nH]c2c1ncn2C1CCCO1 (stereo unspecified) here?
A: 50 % of control and 93 % of control

Q: How did the T/C [1] turn out when S=c1nc[nH]c2nc[nH]c12 was run?
A: 37 % of control, 82 % of control, 89 % of control

Q: CSc1ncnc2c1ncn2C1CCCO1 (stereo unspecified) was tested. Which T/C [2] did it give?
A: 17 % of control and 46 % of control

Q: With C1CN1c1nc(N2CC2)nc(N2CC2)n1 as the molecule, how does the T/C (dose: 0.05 mg/kg/injection, schedule: Q01DX011 (ip), vehicle: saline) read?
A: 36 % of control and 106 % of control

Q: What about the T/C (dose: 0.1 mg/kg/injection, schedule: Q01DX011 (ip), vehicle: saline) of the same molecule?
A: 57 % of control and 150 % of control

Q: How did the T/C (dose: 38.0 mg/kg/injection, schedule: Q01DX011 (ip), vehicle: carboxymethylcellulose (CMC)) turn out when O=C1CN(/N=C\c2ccc([N+](=O)[O-])o2)C(=O)N1 was run?
A: 54 % of control and 80 % of control

Q: How did the T/C (dose: 25.0 micrograms/kg/injection, schedule: Q01DX011 (ip), vehicle: carboxymethylcellulose (CMC)) turn out when Cc1c2oc3c(C)ccc(C(=O)N[C@@H]4C(=O)N[C@H](C(C)C)C(=O)N5CCC[C@H]5C(=O)N(C)CC(=O)N(C)[C@@H](C(C)C)C(=O)O[C@H]4C)c3nc-2c(C(=O)N[C@@H]2C(=O)N[C@H](C(C)C)C(=O)N3CCC[C@H]3C(=O)N(C)CC(=O)N(C)[C@@H](C(C)C)C(=O)O[C@H]2C)c(N)c1=O (I: [aThr][dV]P[Sar][NMeV] / II: [aThr][dV]P[Sar][NMeV]; ester I:1-I:C, II:1-II:C; linker I:N-II:N via Actinocin(9to1)) was run?
A: 59 % of control, 74 % of control, 120 % of control

Q: And the T/C (dose: 50.0 micrograms/kg/injection, schedule: Q01DX011 (ip), vehicle: carboxymethylcellulose (CMC))?
A: 14 % of control and 69 % of control

Q: Which results are given for O=c1[nH]c(=O)n(C2CC(O)C(CO)O2)cc1F (stereo unspecified)?
A: T/C [2]: 18 % of control and 61 % of control; T/C (dose: 63.0 mg/kg/injection, schedule: Q01DX011 (ip), vehicle: saline): 55 % of control and 116 % of control

Q: O=C(O)CCCc1ccc(N(CCCl)CCCl)cc1 was tested. Which T/C (dose: 3.75 mg/kg/injection, schedule: Q01DX011 (ip), vehicle: carboxymethylcellulose (CMC)) did it give?
A: 63 % of control and 107 % of control

Q: And the T/C (dose: 15.0 mg/kg/injection, schedule: Q01DX011 (ip), vehicle: carboxymethylcellulose (CMC))?
A: 20 % of control and 48 % of control

Q: Which T/C (dose: 250.0 mg/kg/injection, schedule: Q01DX011 (ip), vehicle: carboxymethylcellulose (CMC)) does the source give for Nc1ccc2ccccc2c1N=Nc1ccccc1 here?
A: 33 % of control and 66 % of control

Q: For C1OC1C1CO1 (stereo unspecified), which T/C (dose: 2.25 mg/kg/injection, schedule: Q01DX011 (ip), vehicle: carboxymethylcellulose (CMC)) is on record?
A: 73 % of control and 156 % of control

Q: C[C@H](N)C(=O)N[C@@H]1[C@H]2C(=C(O)C[C@@H](O)[C@@H]2O)C(=O)O[C@@H]1C was tested. Which T/C (dose: 400.0 mg/kg/injection, schedule: Q01DX011 (ip), vehicle: carboxymethylcellulose (CMC)) did it give?
A: 35 % of control, 87 % of control, 173 % of control

Q: What about the T/C (dose: 800.0 mg/kg/injection, schedule: Q01DX011 (ip), vehicle: carboxymethylcellulose (CMC)) of the same molecule?
A: 34 % of control (2×) and 78 % of control

Q: With Nc1ncnc2[nH]ncc12 as the molecule, how does the T/C (dose: 7.5 mg/kg/injection, schedule: Q01DX011 (ip), vehicle: carboxymethylcellulose (CMC)) read?
A: 14 % of control and 47 % of control

Q: For CN(Cc1cnc2nc(N)nc(N)c2n1)c1ccc(C(=O)N[C@@H](CCC(=O)O)C(=O)O)cc1, which T/C (dose: 0.26 mg/kg/injection, schedule: Q01DX011 (ip), vehicle: carboxymethylcellulose (CMC)) is on record?
A: 65 % of control and 116 % of control

Q: And the T/C (dose: 0.37 mg/kg/injection, schedule: Q01DX011 (ip), vehicle: carboxymethylcellulose (CMC))?
A: 40 % of control, 84 % of control, 89 % of control

Q: And the T/C (dose: 0.52 mg/kg/injection, schedule: Q01DX011 (ip), vehicle: carboxymethylcellulose (CMC))?
A: 61 % of control and 164 % of control

Q: And the T/C (dose: 1.05 mg/kg/injection, schedule: Q01DX011 (ip), vehicle: carboxymethylcellulose (CMC))?
A: 43 % of control and 116 % of control

Q: And the T/C (dose: 3.0 mg/kg/injection, schedule: Q01DX011 (ip), vehicle: saline)?
A: 9 % of control and 48 % of control

Q: O=S(=O)(O)c1cccnc1 was tested. Which T/C (dose: 19.5 mg/kg/injection, schedule: Q01DX011 (ip), vehicle: carboxymethylcellulose (CMC)) did it give?
A: 96 % of control and 157 % of control

Q: And the T/C (dose: 78.0 mg/kg/injection, schedule: Q01DX011 (ip), vehicle: carboxymethylcellulose (CMC))?
A: 58 % of control and 108 % of control

Q: With C[C@]12C=CC(=O)C=C1CC[C@@H]1[C@@H]2[C@@H](O)C[C@@]2(C)[C@H]1CC[C@]2(O)C(=O)COC(=O)C1CCCC1 as the molecule, how does the T/C (dose: 1.0 mg/kg/injection, schedule: Q01DX011 (sc), vehicle: steriod suspending solution) read?
A: 59 % of control and 91 % of control

Q: Which results are given for CN(C)c1ccc(C(=C(c2ccc(N(C)C)cc2)c2ccc(N(C)C)cc2)c2ccc(N(C)C)cc2)cc1?
A: T/C (dose: 12.0 mg/kg/injection, schedule: Q01DX011 (ip), vehicle: olive oil, sesame oil, peanut oil): 112 % of control, 173 % of control, 189 % of control; T/C (dose: 18.0 mg/kg/injection, schedule: Q01DX011 (ip), vehicle: olive oil, sesame oil, peanut oil): 100 % of control and 161 % of control; T/C (dose: 25.0 mg/kg/injection, schedule: Q01DX011 (ip), vehicle: olive oil, sesame oil, peanut oil): 89 % of control [sample A] and 70 % of control [sample B] and 96 % of control [sample C]

Q: Cc1c2ccc3ccccc3c2c[n+]2ccccc12 was tested. Which T/C (dose: 12.0 mg/kg/injection, schedule: Q01DX011 (ip), vehicle: carboxymethylcellulose (CMC)) did it give?
A: 41 % of control and 122 % of control

Q: With CC(=O)[C@H]1CC[C@H]2[C@@H]3CCC4=CC(=O)[C@H](C)C[C@]4(C)[C@@]3(F)[C@@H](O)C[C@]12C as the molecule, how does the T/C (dose: 37.5 mg/kg/injection, schedule: Q01DX011 (sc), vehicle: steriod suspending solution) read?
A: 23 % of control, 47 % of control, 57 % of control

Q: C[C@@H]1C[C@@H]([C@H](O)CC2CC(=O)NC(=O)C2)C(=O)[C@@H](C)C1 was tested. Which T/C (dose: 8.7 mg/kg/injection, schedule: Q01DX011 (ip), vehicle: carboxymethylcellulose (CMC)) did it give?
A: 112 % of control and 161 % of control

Q: What about the T/C (dose: 17.5 mg/kg/injection, schedule: Q01DX011 (ip), vehicle: carboxymethylcellulose (CMC)) of the same molecule?
A: 116 % of control and 161 % of control

Q: What about the T/C (dose: 35.0 mg/kg/injection, schedule: Q01DX011 (ip), vehicle: carboxymethylcellulose (CMC)) of the same molecule?
A: 46 % of control and 102 % of control

Q: And the T/C (dose: 40.0 mg/kg/injection, schedule: Q01DX011 (ip), vehicle: carboxymethylcellulose (CMC))?
A: 19 % of control, 66 % of control, 76 % of control

Q: With CCN(CC)CCNc1ccc(C)c2sc3ccccc3c(=O)c12 as the molecule, how does the T/C (dose: 32.5 mg/kg/injection, schedule: Q01DX011 (ip), vehicle: carboxymethylcellulose (CMC)) read?
A: 21 % of control and 119 % of control

Q: How did the T/C (dose: 171.0 mg/kg/injection, schedule: Q01DX011 (ip), vehicle: carboxymethylcellulose (CMC)) turn out when CNC=O was run?
A: 60 % of control and 88 % of control

Q: And the T/C (dose: 300.0 mg/kg/injection, schedule: Q01DX011 (ip), vehicle: carboxymethylcellulose (CMC))?
A: 30 % of control and 59 % of control
